Experimental data: PubChem BioAssay AID330 (DTP/NCI, 2004)
Inconclusive results and toxic doses are left out. A number of entries come with more than one value. Only these are listed. There may be further records. Values that stand side by side repeat one measurement in other runs, samples, wells, individuals or studies. What stands in brackets tells the records apart. Letters count within one entry.

Test system: P388 leukemia ip, CD2F1 mice, survival T/C
Assay: NCI In Vivo Anticancer Drug Screen. Data for tumor model P388 Leukemia (intraperitoneal) in CD2F1 (CDF1) mice
Details: endpoint: median survival time, higher = longer survival
[1] = dose: 200.0 mg/kg/injection, schedule: Q04DX003 (ip), vehicle: saline with Tween-80

CC1=CC(=O)[C@@H](O)[C@]2(C)[C@H]3[C@@H](O)[C@H](O)[C@@]4(C)OC[C@@]35[C@@H](C[C@@H]12)OC(=O)C[C@]54O
T/C (dose: 0.5 mg/kg/injection, schedule: Q01DX009 (ip), vehicle: saline): 119 % of control and 156 % of control

COC(=O)CC1(O)C(=O)OCc2c1cc1n(c2=O)Cc2c-1nc1ccccc1c2OC (centres undefined)
T/C (dose: 25.0 mg/kg/injection, schedule: Q01DX009 (ip), vehicle: saline): 110 % of control and 167 % of control

CCOc1ccc(Br)cc1/C=N/NS(=O)(=O)c1ccc(C)cc1
T/C (dose: 400.0 mg/kg/injection, schedule: Q01DX009 (ip), vehicle: saline with Tween-80): 100 % of control and 157 % of control

CCSc1nc2ccc(N=Cc3ccccc3O)cc2s1
T/C (dose: 50.0 mg/kg/injection, schedule: Q01DX009 (ip), vehicle: Klucel (hydroxypropylcellulose) (HPC)): 94 % of control, 102 % of control, 168 % of control

COc1ccc(CC2C(=O)NC(C)C(=O)N(C)C3Cc4ccc(cc4)Oc4cc(ccc4O)CC(C(=O)NC(C)C(=O)NC(C)C(=O)N2C)N(C)C3=O)cc1 (centres undefined)
T/C (dose: 0.5 mg/kg/injection, schedule: Q01DX009 (ip), vehicle: saline with Tween-80): 106 % of control and 156 % of control

CC(C)CCCCCCCCCCCCC(=O)NCC(=O)NC1C(C)OC(Nc2ncnc3nc[nH]c23)C(O)C1O (centres undefined)
T/C (dose: 2.0 mg/kg/injection, schedule: Q01DX009 (ip), vehicle: other): 94 % of control and 157 % of control

O=[N+]([O-])c1ccccc1C(Nc1nncs1)Nc1nncs1
T/C (dose: 200.0 mg/kg/injection, schedule: Q01DX005 (ip), vehicle: Klucel (hydroxypropylcellulose) (HPC)): 102 % of control and 154 % of control

Nc1nc(=S)c2ncn(C3OC(COC(=O)c4ccc(Cl)cc4)C(OC(=O)c4ccc(Cl)cc4)C3OC(=O)c3ccc(Cl)cc3)c2[nH]1 (centres undefined)
T/C [1]: 120 % of control and 154 % of control

NC(Cc1ccccc1)C(=O)OCN1C(=O)C2C3C=CC(C2C1=O)C1C2C(=O)N(COC(=O)C(N)Cc4ccccc4)C(=O)C2C31 (centres undefined)
T/C (dose: 200.0 mg/kg/injection, schedule: Q01DX009 (ip), vehicle: water): 105 % of control and 163 % of control

CCOc1ccc(C(C)c2cc3c(cc2OC)OCO3)cc1 (centres undefined)
T/C (dose: 333.33 mg/kg/injection, schedule: Q01DX005 (ip), vehicle: distilled water + Tween-80): 96 % of control and 196 % of control

Cc1ccc2cc3c(ccc4ccccc43)c3c2c1CC3
T/C [1]: 123 % of control and 163 % of control

CC([NH-])CC(C)[NH-].O=[N+]([O-])O.O=[N+]([O-])O.[Pt+2] (centres undefined)
T/C (dose: 6.25 mg/kg/injection, schedule: Q04DX002 (ip), vehicle: saline): 120 % of control [sample A] and 160 % of control [sample B]
T/C (dose: 12.5 mg/kg/injection, schedule: Q04DX002 (ip), vehicle: saline): 150 % of control [sample A] and 90 % of control [sample B] and 184 % of control [sample C]

Cc1ccc(S(=O)(=O)N/N=C/C(Br)=C(/Br)C(=O)O)cc1
T/C (dose: 100.0 mg/kg/injection, schedule: Q01DX009 (ip), vehicle: distilled water + Tween-80): 100 % of control and 192 % of control
T/C (dose: 200.0 mg/kg/injection, schedule: Q01DX009 (ip), vehicle: distilled water + Tween-80): 90 % of control and 182 % of control

COc1cccc2c1C(=O)c1c(O)c3c(c(O)c1C2=O)C[C@@](O)(/C(C)=N\NC(N)=O)C[C@@H]3OC1CC(N)C(O)C(C)O1 (some centres undefined)
T/C (dose: 6.25 mg/kg/injection, schedule: Q01DX009 (ip), vehicle: saline): 106 % of control and 181 % of control
T/C (dose: 12.5 mg/kg/injection, schedule: Q01DX009 (ip), vehicle: saline): 113 % of control and 160 % of control

CCCCCC(N)C(C)=O (centres undefined)
T/C (dose: 100.0 mg/kg/injection, schedule: Q01DX009 (ip), vehicle: saline with Tween-80): 92 % of control and 187 % of control

C/C(=N\NC(=S)N1CC2CCC(CC2)C1)c1cccc(C)n1
T/C (dose: 25.0 mg/kg/injection, schedule: Q01DX005 (ip), vehicle: saline with Tween-80): 121 % of control and 151 % of control
